Assays:
[1] = biological target: HER2 and HER3 on cells (MALME-3M or SKOV cells); test: FACS; column head prints Bmax (MALME 20120603)
[2] = biological target: HER2 and HER3 on cells (MALME-3M or SKOV cells); test: FACS on SKOV cells (20120803), FITC-labeled anti-HSA antibodies; apparent Kd
[3] = biological target: HER2 and HER3 on cells (MALME-3M or SKOV cells); test: FACS on MALME-3M cells (2012529), FITC-labeled anti-HSA antibodies
[4] = biological target: HER2 and HER3 on cells (MALME-3M or SKOV cells); test: FACS on SKOV-3 cells, FITC-labeled anti-HSA detection
[5] = biological target: HER2 and HER3 on cells (MALME-3M or SKOV cells); test: FACS on MALME-3M cells (20120529), FITC-labeled anti-HSA antibodies; apparent Kd

B1: v1090: AlbuCORE_1 (ABH2) with anti-HER3 at the N terminus of fragment 1 and anti-HER2 (B1D2) at the C terminus of fragment 2 (bispecific antibody)
chain 1: QVQLQESGGGLVKPGGSLRLSCAASGFTFSSYWMSWVRQAPGKGLEWVANINRDGSASYYVDSVKGRFTISRDDAKNSLYLQMNSLRAEDTAVYYCARDRGVGYFDLWGRGTLVTVSSASTGGGGSGGGGSGGGGSQSALTQPASVSGSPGQSITISCTGTSSDVGGYNFVSWYQQHPGKAPKLMIYDVSDRPSGVSDRFSGSKSGNTASLIISGLQADDEADYYCSSYGSSSTHVIFGGGTKVTVLGGGSDAHKSEVAHRFKDLGEENFKALVLIAFAQYLQQCPFEDHVKLVNEVTEFAKTCVADESAENCDKSLHTLFGDKLCTVATLRETYGEMADCCAKQEPERNECFLQHKDDNPNLPRLVRPEVDVMCTAFHDNEETFLKKYLYEIARRHPYFYAPELLFFAKRYKAAFTECCQAADKAACLLPKLDELRDEGKASSAKQRLKCASLQKFGERAFKAWAVARLSQRFPKAEFAEVSKLVTDLTKVHTECCHGDLLECADDRADLAKYICENQDSISSKLKECCEKPLLEKSHCIAEVENDEMPADLPSLAADFVESKDVCKNYAEAKDVFLGMFLYEYARA
chain 2: SVVLLLRLAKTYETTLEKCCAAADPHECYAKVFDEFKPL[about 200 residues skipped]GGSGQVQLVQSGAEVKKPGESLKISCKGSGYSFTSYWIAWVRQMPGKGLEYMGLIYPGDSDTKYSPSFQGQVTISVDKSVSTAYLQWSSLKPSDSAVYFCARHDVGYCTDRTCAKWPEWLGVWGQGTLVTVSSGGGGSSGGGSGGGGSQSVLTQPPSVSAAPGQKVTISCSGSSSNIGNNYVSWYQQLPGTAPKLLIYDHTNRPAGVPDRFSGSKSGTSASLAISGFRSEDEADYYCASWDYTLSGWVFGGGTKLTVLG
A Bmax [1] of 2660, a Kd [2] of 9.4 nM and a Bmax [3] of 323 were found for B1 in this work. The EC50 (read off the curve) [4] was 8 nM and the Kd [5] was 200 nM.
